Test results reported in a collection of fitness landscapes (doi:10.1016/j.celrep.2020.107928).
The full ranking holds about 81,000 sequences; the median of “one-hybrid fitness for binding NBS DNA” is about -0.1, and the highest 2% start at about 0.36. Some of the results follow.

B1: Caulobacter ParB omega fusion; a variant is named by its letters at X, in order, B8GW30 (parent)
chain: MESVVVGEPGMSEGRRGLGRGLSALLGEVDAAPAQAPGEQLGGSREAPIEILQRNPDQPRRTFREEDLEDLSNSIREKGVLQPILVRPSPDTAGEYQIVAGERAWRAAQRAGLKTVPIMVRELDDLAVLEIGIIENVQRADLNVLEEALSYKVLMEKFERTQENIAQTIGKSXSHVANXMRLLXLPDEVQSYLVSGELTAXHARAIAAAADPVALAKQIIEGGLSVRETEALARKAPNLSAGKSKGGRPPRVKDTDTQALESDLSSVLGLDVSIDHRGSTGTLTITYATLEQLDDLCNRLTRGI

Variants of: B1
Experiment: one-hybrid fitness for binding NBS DNA (the Noc-binding site; scaled: cognate 1, non-cognate 0); higher = stronger binding
Details: with NBS DNA site
Outline: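 In E. coli USO, a HIS3 reporter with its site placed 19 bp from the promoter was used to select Caulobacter ParB variants randomised at four specificity codons. Growth lasted 48 hours at 37°C on histidine-free M9 containing 0.1 mM IPTG and 5 mM 3-AT. Fitness was taken as the log change in variant-to-wild-type read ratio from Illumina sequencing of pre- and post-selection plasmids, rescaled between the non-cognate and cognate sites.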

Variant	one-hybrid fitness for binding NBS DNA
KHMS	≤ 0.2
IQPR	≤ 0.2
FCLW	≤ 0.2
EGLG	≤ 0.2
QRMH	0.499
CFFL	≤ 0.2
AYHI	≤ 0.2
NSVG	≤ 0.2
RVYQ	≤ 0.2
NNPK	≤ 0.2
SRNS	≤ 0.2
RSPV	≤ 0.2
TLEE	≤ 0.2
GLCL	≤ 0.2
DWNC	≤ 0.2
MPVQ	≤ 0.2
YRQE	≤ 0.2
HPWM	≤ 0.2
SSQN	≤ 0.2
LMNC	≤ 0.2
TSRI	≤ 0.2
PTGR	≤ 0.2
EQYS	≤ 0.2
TSLS	≤ 0.2
LDFS	≤ 0.2

Variant	one-hybrid fitness for binding NBS DNA
SKHG	≤ 0.2
KLTD	≤ 0.2
ATFC	≤ 0.2
LGSR	≤ 0.2
YIRT	≤ 0.2
TKLH	≤ 0.2
SPGF	≤ 0.2
QHMV	≤ 0.2
PASP	≤ 0.2
NRTH	≤ 0.2
STVY	≤ 0.2
CRAV	≤ 0.2
QVFL	≤ 0.2
VMLE	≤ 0.2
PYKI	≤ 0.2
GYLI	≤ 0.2
SCYW	≤ 0.2
KDTT	≤ 0.2
HRNG	≤ 0.2
PVKR	≤ 0.2
HRVM	≤ 0.2
LSSE	≤ 0.2
LYQL	≤ 0.2
HHIT	≤ 0.2
NDTL	≤ 0.2

Variant	one-hybrid fitness for binding NBS DNA
HLKP	≤ 0.2
NSNL	≤ 0.2
EGCI	≤ 0.2
ALAW	≤ 0.2
RHTW	≤ 0.2
SSHM	≤ 0.2
AHPR	≤ 0.2
QYRW	0.26
QQPR	0.365
IPPN	≤ 0.2
QRAM	0.404
ANQN	≤ 0.2
AKIK	≤ 0.2
NLNI	≤ 0.2
RDIE	≤ 0.2
WVLA	≤ 0.2
LFTG	≤ 0.2
PCQV	≤ 0.2
FSSS	≤ 0.2
EDTL	≤ 0.2
KALN	≤ 0.2
LTFI	≤ 0.2
VAQR	≤ 0.2
ELKF	≤ 0.2
HWMG	≤ 0.2

Variant	one-hybrid fitness for binding NBS DNA
NIEV	≤ 0.2
HTIT	≤ 0.2
HPQK	≤ 0.2
PTQH	≤ 0.2
KSSP	≤ 0.2
AQRH	≤ 0.2
GNLV	≤ 0.2
LTKY	≤ 0.2
TGVA	≤ 0.2
QQGE	≤ 0.2
CAPW	≤ 0.2
PQST	≤ 0.2
QTAT	0.595
RMRC	0.339
LCLG	≤ 0.2
RMEM	≤ 0.2
SFYG	≤ 0.2
FPPK	≤ 0.2
TYIP	≤ 0.2
TLKC	≤ 0.2
DPQS	≤ 0.2
QRFY	0.392
TVST	≤ 0.2
WLFG	≤ 0.2
QHAK	≤ 0.2

Variant	one-hybrid fitness for binding NBS DNA
EQHV	≤ 0.2
IGGS	≤ 0.2
DRGT	≤ 0.2
STHC	≤ 0.2
VAQV	≤ 0.2
PICC	≤ 0.2
EHVL	≤ 0.2
QNCM	≤ 0.2
CLSR	≤ 0.2
GGYS	≤ 0.2
LAKC	≤ 0.2
IMNC	≤ 0.2
ADRK	≤ 0.2
EFDG	≤ 0.2
PIGV	≤ 0.2
VMTW	≤ 0.2
MRLY	≤ 0.2
HHEK	≤ 0.2
SRTR	≤ 0.2
PELG	≤ 0.2
QIDF	≤ 0.2
DPYY	≤ 0.2
KESY	≤ 0.2
VQNV	≤ 0.2
SLAT	≤ 0.2

Variant	one-hybrid fitness for binding NBS DNA
IPDC	≤ 0.2
QTPM	≤ 0.2
CHSG	≤ 0.2
GFNY	≤ 0.2
DMHE	≤ 0.2
ITGS	≤ 0.2
AIRT	≤ 0.2
IRPR	≤ 0.2
CVAQ	≤ 0.2
PRPY	≤ 0.2
HIRG	≤ 0.2
PAKI	≤ 0.2
GCGL	≤ 0.2
DPTC	≤ 0.2
VMTT	≤ 0.2
LCAT	≤ 0.2
TYEH	≤ 0.2
RKEW	≤ 0.2
AAQK	≤ 0.2
YLNT	≤ 0.2
NQWK	≤ 0.2
NCCR	≤ 0.2
HAHV	≤ 0.2
TPVM	≤ 0.2
RELS	≤ 0.2

Variant	one-hybrid fitness for binding NBS DNA
HKIL	≤ 0.2
REWR	≤ 0.2
DKDT	≤ 0.2
WRDG	≤ 0.2
RPER	≤ 0.2
ASMS	≤ 0.2
MREG	≤ 0.2
MHSD	≤ 0.2
GTTN	≤ 0.2
AYDV	≤ 0.2
DPNR	≤ 0.2
YLIW	≤ 0.2
HLPK	≤ 0.2
YAAY	≤ 0.2
VYIS	≤ 0.2
DDKT	≤ 0.2
NAAC	≤ 0.2
KLRR	0.31
WENS	≤ 0.2
TGMF	≤ 0.2
VWNY	≤ 0.2
WNDI	≤ 0.2
RMHK	≤ 0.2
FNPM	≤ 0.2
VLVL	≤ 0.2

Variant	one-hybrid fitness for binding NBS DNA
SSYF	≤ 0.2
YPGG	≤ 0.2
DMTR	≤ 0.2
CYTF	≤ 0.2
RPHF	≤ 0.2
EHKS	≤ 0.2
SSTL	≤ 0.2
QKWS	0.33
YHTP	≤ 0.2
PCPK	≤ 0.2
NCSM	≤ 0.2
PETF	≤ 0.2
RFGM	≤ 0.2
MTYT	≤ 0.2
QVLW	≤ 0.2
YACT	≤ 0.2
DNLI	≤ 0.2
GSVR	≤ 0.2
IVVF	≤ 0.2
DYFM	≤ 0.2
